Experimental data reported in the antibiotic and cytotoxicity screens of Wong et al. (2023).
Some of the results follow.

system: S. aureus RN4220; experiment: growth inhibition call (relative growth <= 0.2); conditions: 50 µM

Growth inhibition call, inactive:
C[C@@H]1CN([C@@H](C)CO)C(=O)c2cc(NS(=O)(=O)c3ccc(F)cc3)ccc2O[C@H]1CN(C)Cc1ccncc1, C[C@@H]1CN([C@H](C)CO)C(=O)c2cc(NC(=O)c3ccncc3)ccc2O[C@@H]1CN(C)Cc1ccc(-c2ccccc2)cc1, CC(C)NC(=O)N(C)C[C@H]1Oc2ccc(NC(=O)CCC(F)(F)F)cc2CC(=O)N([C@@H](C)CO)C[C@@H]1C, C[C@@H]1CN([C@H](C)CO)C(=O)c2cc(NS(=O)(=O)c3ccccc3)ccc2O[C@@H](C)CCCCO[C@@H]1CN(C)C(=O)c1ccccc1, C[C@@H]1CCCCO[C@H](CN(C)Cc2ccccc2)[C@H](C)CN([C@@H](C)CO)C(=O)c2cc(NS(=O)(=O)c3ccc(F)cc3)ccc2O1, O=C(CN1CCOCC1)NCC[C@@H]1CC[C@@H](NS(=O)(=O)c2ccc(F)cc2)[C@@H](CO)O1, COc1ccccc1S(=O)(=O)N[C@@H]1C=C[C@@H](CC(=O)N2CCN(C)CC2)O[C@H]1CO, C[C@@H]1CN([C@@H](C)CO)C(=O)c2cc(NC(=O)Nc3ccc(F)cc3)ccc2O[C@@H](C)CCCCO[C@H]1CN(C)Cc1ccc(Cl)c(Cl)c1, CN(C)c1nc(N)nc(Cn2ccnc2)n1, O=C(C[C@H]1CC[C@@H]2[C@H](COC[C@H](O)CN2S(=O)(=O)c2ccccc2)O1)N[C@H]1CCN(Cc2ccccc2)C1, CC(C)NC(=O)Nc1ccc2c(c1)C(=O)N([C@H](C)CO)C[C@H](C)[C@@H](CN(C)C(=O)Nc1ccc(C(F)(F)F)cc1)OCCCC[C@@H](C)O2
